Assay results: ChEMBL document CHEMBL1201862, “PubChem BioAssay data set” (2004)
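Interpolation was linear, between the two tested concentrations surrounding the appropriate level; five concentrations were tested over 48 hours in 96-well plates. Abbreviation: GI50, concentration required for 50% inhibition of growth.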 Active and inactive are the calls of the source. Rule as the data show it: active = GI50 up to about 1.1 µM and inactive = higher.

What follows are compounds tested on NCI-H322M (assay: NCI tumour cell line growth inhibition, 48 h).
For `CCN(CC)c1ccc(C(=O)c2ccccc2C(=O)O)c(O)c1`, the GI50 was inactive: > 100 µM.
In the case of `O=C(CCCn1ccnc1[N+](=O)[O-])NCCn1ccnc1`, the GI50 is reported as inactive: > 100 µM.
For `CN(C)CCCN1c2ccccc2Sc2ccc3ccccc3c21`, the GI50 was inactive: 12.4 µM.
`O=C1CCC(CCc2nc3ccccc3[nH]2)(c2ccccc2)C(=O)N1` (centres undefined) was tested, and the GI50 was inactive: > 100 µM.
With `COc1cccc(C2SCc3nc4ccccc4n32)c1` (centres undefined) the GI50 was inactive: > 100 µM.
With `CC(C)C(NC(=O)C(Cc1ccccc1)NC(=O)[C@H]1CCC[C@H]1NC(=O)C(Cc1ccc(OC(C)(C)C)cc1)NC(=O)OC(C)(C)C)C(N)=O` (some centres undefined) the GI50 was inactive: 38.2 µM.
For `COC1(C)CP(=O)(OC(C)C)CC(C)=C1Cl` (centres undefined), the GI50 was inactive: 22.1 µM.
`COc1cc(/C=C/c2nc(NC(=S)Nc3ccccc3)nnc2C)cc(OC)c1OC` was tested, and the GI50 was inactive: 30.8 µM.
For `O=C1c2ccccc2CCC1C(O)(C(F)(F)F)C(F)(F)F` (centres undefined), the GI50 was inactive: > 100 µM.
`CNC1NC(=O)c2ccccc2N1Cc1ccc(F)cc1` (centres undefined) was tested, and the GI50 was inactive: > 100 µM.
`CCCCCC(=O)CCCCCCCC(O)CC(=O)OCC` (centres undefined) was tested, and the GI50 was inactive: > 100 µM.
In the case of `Clc1ccc(OC2CCO2)cc1Cl` (centres undefined), the GI50 is reported as inactive: > 100 µM.
In the case of `O=c1[nH]c(-c2ccc(-c3nc4cc([N+](=O)[O-])ccc4c(=O)[nH]3)cc2)nc2cc([N+](=O)[O-])ccc12`, the GI50 is reported as inactive: > 100 µM.
In the case of `O=C(Nc1ccc2c(c1)oc(=O)c1ccccc12)C(Cl)Cl`, the GI50 is reported as inactive: 17.6 µM.
In the case of `O=P1(O)c2ccccc2CS(=O)(=O)Cc2ccccc21`, the GI50 is reported as inactive: > 100 µM.
For `CC(=O)OCC1OC(N2C(C)=C(C(C)=O)C(c3ccco3)C(C#N)=C2S)C(OC(C)=O)C(OC(C)=O)C1OC(C)=O` (centres undefined), the GI50 was inactive: > 100 µM.
In the case of `O=c1c2cccc3cccc(c4oc5c6cccc7cccc(c(=O)c5c14)c76)c32`, the GI50 is reported as inactive: 24.5 µM.
`CCN1CCC(O)(c2ccc(Oc3ccccc3)cc2)C(C(=O)c2ccc(Oc3ccccc3)cc2)C1` (centres undefined) was tested, and the GI50 was inactive: 13.6 µM.
`N#CC(/C(CCC(=O)Nc1ccc(Cl)cc1)=N/NC(=O)c1cc2ccccc2cc1O)c1ccccc1` (centres undefined) was tested, and the GI50 was inactive: 29.6 µM.
With `Cc1cc(S(=O)(=O)O)c(NC(=O)C(=O)Cc2cc(=O)oc3cc(O)ccc23)cc1Cl` the GI50 was inactive: > 100 µM.
`CC(C)(C)c1cc2c(OP(c3ccccc3)c3ccccc3)c(c1)Cc1cc(C(C)(C)C)cc(c1OP(c1ccccc1)c1ccccc1)Cc1cc(C(C)(C)C)cc(c1OP(c1ccccc1)c1ccccc1)Cc1cc(C(C)(C)C)cc(c1OP(c1ccccc1)c1ccccc1)C2` was tested, and the GI50 was inactive: > 5 µM.
For `CCCCOC(=O)CNC(=O)OCCCCC#CC#CCCCCOC(=O)NCC(=O)OCCCC`, the GI50 was inactive: > 100 µM.
`Oc1ccc2c(c1)-c1c(c3ccccc3n1CCN1CCOCC1)CC2` was tested, and the GI50 was inactive: 19.4 µM.
In the case of `O=C1OC(O)C(Oc2c(Cl)cccc2Cl)=C1Cl` (centres undefined), the GI50 is reported as inactive: 20.6 µM.
With `CCC/C=C1\CCC(CN(C)C)C1=O` (centres undefined) the GI50 was inactive: 30.5 µM.
`O=C1CSC(c2ccc(Cl)cc2Cl)N1c1ccc(Oc2ccc(Cl)cc2)c(Cl)c1` (centres undefined) was tested, and the GI50 was inactive: 25.1 µM.
In the case of `CCOC(=O)C1=C(C)N(C2OC(COC(C)=O)C(OC(C)=O)C(OC(C)=O)C2OC(C)=O)C(=O)NC1c1ccccc1` (centres undefined), the GI50 is reported as inactive: > 100 µM.
In the case of `Oc1ccc2c(c1)OCC(O)(c1ccccc1O)C2` (centres undefined), the GI50 is reported as inactive: > 100 µM.
For `Cc1ccc(NC(=O)CC/C(CC(=O)C(C)(C)C)=N/NC(=O)c2cc3ccccc3cc2O)cc1C`, the GI50 was inactive: 44.5 µM.
For `O=[N+]([O-])c1cc(Br)cc2cc(Cl)cnc12`, the GI50 was inactive: > 100 µM.
In the case of `COC(=O)C(COC(C)=O)NC(=O)/C=C/c1ccc(O)c(OC(C)=O)c1` (centres undefined), the GI50 is reported as inactive: > 100 µM.
`O=C(/C=C/c1ccc(OCc2cccc(Cl)c2)cc1)NO` was tested, and the GI50 was inactive: 14.3 µM.
`COC(=O)C1C(OS(=O)(=O)O)CCC2CN3CCc4c([nH]c5ccccc45)C3CC21` (centres undefined) was tested, and the GI50 was inactive: > 100 µM.
With `Cc1ccc2c(c1)C=CC(C#N)N2C(=O)Oc1ccccc1` (centres undefined) the GI50 was inactive: 24.4 µM.
For `CC(=O)OC1CCn2nnc(CO[Si](C)(C)C(C)(C)C)c21` (centres undefined), the GI50 was inactive: > 100 µM.
For `Fc1cc2nc3n(c2cc1F)C(c1c(F)cccc1F)SC3` (centres undefined), the GI50 was inactive: 80 µM.
`COc1cc2ccc1NC(=O)N1CCN(CC1)C(=O)Nc1ccc(cc1OC)-c1ccc(c(OC)c1)NC(=O)N1CCN(CC1)C(=O)Nc1ccc-2cc1OC` was tested, and the GI50 was inactive: > 100 µM.
With `OCCN(C1=NCCN1)/[N+](=C/c1ccc(Cl)cc1)[CH-]c1ccc(Cl)cc1` the GI50 was inactive: > 100 µM.
In the case of `CN1CCOC1(C)c1ccccc1` (centres undefined), the GI50 is reported as inactive: > 100 µM.
With `Fc1ccc(N2C(=S)SC(=N\c3ccccc3)/C2=N/c2ccccc2)cc1` the GI50 was inactive: > 100 µM.
In the case of `CCNC(=O)/C=C/CCC#Cc1ccc(-c2ccc(-c3cccs3)s2)s1`, the GI50 is reported as inactive: > 100 µM.
`Cc1cn(C(Cc2ccccc2)OCCO)c(=O)[nH]c1=O` (centres undefined) was tested, and the GI50 was inactive: > 100 µM.
With `CN1CCN(c2ccc3nc(C4=C(O)C(=O)c5c(nc(CCl)n5C)C4=O)[nH]c3n2)CC1` the GI50 was inactive: 18.6 µM.
With `C=C1CCC2C(C)(CO)C(O)CCC2(C)C1CC(O)/C(=C/CO)C(=O)O` (centres undefined) the GI50 was inactive: > 100 µM.
For `Cc1csc2nc(-c3ccc([N+](=O)[O-])cc3)c(/C=N/N=C(N)N)n12`, the GI50 was inactive: 1.86 µM.
For `COC(=O)CC1N/C(=N\C#N)N(CCc2c[nH]c3ccccc23)C1=O` (centres undefined), the GI50 was inactive: > 100 µM.
For `CCN(CC)CCNc1ccc2nnn3c4ccc(OCCN(CC)CC)cc4c(=O)c1c23`, the GI50 was inactive: 24.3 µM.
For `CN(C)c1ccc(/C=C(/NC(=O)c2ccccc2)C(=O)Nc2ccccc2C(=O)O)cc1`, the GI50 was inactive: > 100 µM.
With `CN(C)/C=C/c1nnnn1-c1ccc(I)cc1` the GI50 was inactive: 22.3 µM.
For `CC(CN1NC12CCCC2)N1NC12CCCC2` (centres undefined), the GI50 was inactive: > 100 µM.
In the case of `COc1cc(C2SCC(=O)N2c2cccc(Cl)c2)cc(OC)c1OC` (centres undefined), the GI50 is reported as inactive: 75.5 µM.
`COc1cccc(/C=C2/S/C(=N/Nc3nc(C)c(C(C)=O)s3)NC2=O)c1O` was tested, and the GI50 was inactive: 48.9 µM.
For `COc1ccc(C(=O)CCN(C)C)c2ccccc12`, the GI50 was inactive: > 74 µM.
In the case of `O=c1c2ccccc2[se]n1-c1cccnc1`, the GI50 is reported as inactive: 43 µM.
`CCOC(=O)/C(=C/c1ccco1)P(=O)(OCC)OCC` was tested, and the GI50 was inactive: > 100 µM.
`Cn1c(NN)nc(-c2ccc([N+](=O)[O-])cc2)c(C#N)c1=O` was tested, and the GI50 was inactive: 14.3 µM.
With `C(/C=N/N=C1NCCCCN1)=N\N=C1NCCCCN1` the GI50 was inactive: > 100 µM.
`O=C(CSc1nc2ccccc2c(=O)n1-c1ccccc1)N/N=C1\C(=O)Nc2ccc(F)cc21` was tested, and the GI50 was inactive: 2.07 µM.
`O=C(c1ccccc1)C(Nc1ccc2ccccc2c1)c1ccccc1` (centres undefined) was tested, and the GI50 was inactive: > 66.2 µM.
With `COC(=O)C1CC23C4=C(CCC41)CCC1CN4CC(C)C(CC(OC(C)=O)C12COC(C)=O)C43O` (centres undefined) the GI50 was inactive: > 100 µM.
For `CCOC(=O)C1CCC(=O)N1C(=O)c1ccccc1Cl` (centres undefined), the GI50 was inactive: > 100 µM.
`CCOC(=O)Cc1nc2sc(S(N)(=O)=O)nn2c1Br` was tested, and the GI50 was inactive: 34 µM.
With `CNC(=O)N(CCC#N)CCN(CCN(C(=O)NC)c1ccccc1)C(=O)NC` the GI50 was inactive: > 100 µM.
For `COC(=O)N/N=C(/Cc1occc(=O)c1O)C(=O)Nc1ccc([N+](=O)[O-])cc1[N+](=O)[O-]`, the GI50 was inactive: > 100 µM.
For `O=C(NNC(=O)c1c(Cl)c(Cl)c(Cl)c(Cl)c1-c1nc2ccccc2[nH]1)c1ccc(Cl)cc1`, the GI50 was inactive: 52.2 µM.
With `CCN(CC)c1ccc2cc(C(=O)Nc3nc(C45CC6CC(CC(C6)C4)C5)cs3)c(=O)oc2c1` the GI50 was inactive: > 100 µM.
`COC(O)C12OC3CO[Si](C(C)C)(C(C)C)O[Si](C(C)C)(C(C)C)OC3C1Oc1nc(=O)ccn12` (centres undefined) was tested, and the GI50 was inactive: 16.4 µM.
`COc1ccc(C(=O)C(C(=O)C(=O)NCCCNC(=O)C(=O)C(C(=O)c2ccc(OC)cc2)c2ccc(OC)cc2)c2ccc(OC)cc2)cc1` (centres undefined) was tested, and the GI50 was inactive: > 100 µM.
`COc1ccc(Cc2nc3cc([N+](=O)[O-])ccc3n2C[C@@H]2CCCN3CCCCC23)cc1` (some centres undefined) was tested, and the GI50 was inactive: 25.3 µM.
For `CCOC(=O)c1c(N/C(S)=N/c2ccccc2)sc2c1CCOC2`, the GI50 was inactive: 73.6 µM.
In the case of `Cc1cc(NS(=O)(=O)c2ccc(NC(=O)c3cccc4c(Nc5ccc(S(=O)(=O)Nc6cc(C)on6)cc5)c5ccccc5nc34)cc2)no1`, the GI50 is reported as inactive: 43.8 µM.
For `CCOC(=O)c1ccc(/N=c2/[nH]c3ccccc3s/c2=N/c2ccc(C(=O)OCC)cc2)cc1`, the GI50 was inactive: > 100 µM.
`Cc1ccc(NC(=O)/C(CC2Nc3c(ccc4c3C(=O)c3ccccc3C4=O)NC2O)=N/NC(C)(C)C)cc1` (centres undefined) was tested, and the GI50 was inactive: 3.29 µM.
`Cc1ccc(S(=O)(=O)N2CCNCCN(S(=O)(=O)c3ccc(C)cc3)CCNCC2)cc1` was tested, and the GI50 was inactive: 20.3 µM.
For `O=C(N/N=C(COc1ccccc1Cl)\N=C\c1cccnc1)c1ccncc1`, the GI50 was inactive: > 100 µM.
`COc1ccc(CNc2nc(NCc3ccc(OC)cc3)nc(NC3CCCC3)n2)cc1` was tested, and the GI50 was inactive: 2.42 µM.
With `N#Cc1ccc(NC(=O)C(CC(=O)OCc2ccccc2)NC(=O)OCc2ccccc2)cc1` (centres undefined) the GI50 was inactive: > 10 µM.
`COC1(OC)CCC2(C)OC(c3ccccc3)C1O2` (centres undefined) was tested, and the GI50 was inactive: > 100 µM.
With `Cc1cc(NS(=O)(=O)c2ccc(Nc3c4ccccc4nc4ccc(C(=O)Nc5ccc(S(N)(=O)=O)cc5)cc34)cc2)no1` the GI50 was inactive: > 100 µM.
For `CC(C)C(=O)Nc1cc(C(F)(F)F)ccc1[N+](=O)[O-]`, the GI50 was inactive: > 100 µM.
For `CC1(C)CC(=O)c2c(nc3c(ccc4ccccc43)c2-c2ccc(NC(=O)CCCCC(=O)Nc3ccc(-c4c5c(nc6c4ccc4ccccc46)CC(C)(C)CC5=O)cc3)cc2)C1`, the GI50 was inactive: 21.6 µM.
`Oc1c(Cl)cc(Cl)cc1/C=N/Nc1ccccn1` was tested, and the GI50 was inactive: 1.67 µM.
With `COc1cc(C2c3[nH]c4ccccc4c3C[C@H]3COC(=O)N23)cc(OC)c1OC` (some centres undefined) the GI50 was active: 0.0743 µM.
For `CC(C)(O)[C@@H]1CCC(C)([C@H]2[C@@H](O)CC3(C)C4CC(OC5OC(CO)C(O)C(O)C5O)C5C(C)(C)[C@@H](OC6OCC(O)C(O)C6O)CC[C@@]56C[C@@]46CC[C@]23C)O1` (some centres undefined), the GI50 was inactive: > 100 µM.
`CCCCCCCCCCCCCCCC(=O)N[C@H]1CCc2cc(OC)c(OC)c(OC)c2-c2ccc(SC)c(=O)cc21` was tested, and the GI50 was active: 0.48 µM.
In the case of `COc1ccc(C(Cc2cc(OC)c(OC)c(OC)c2)C(=O)O)cc1` (centres undefined), the GI50 is reported as inactive: 30.4 µM.
For `COc1cc2ccccc2c2cc([N+](=O)[O-])oc12`, the GI50 was inactive: 1.48 µM.
`Nc1ccc(-c2nc3ccccc3s2)cc1` was tested, and the GI50 was inactive: 35.3 µM.
With `CCCc1ccc(NCc2cc(OC)c(OC)c(OC)c2)cc1` the GI50 was inactive: 57.7 µM.
